{
  "source": "PubChem BioAssay AID1347417",
  "about": "(National Center for Advancing Translational Sciences (NCATS), 2020)",
  "note": "Screen size: about 120,000 compounds; about 5,300 (4.4%) were called active. This list was built around the results that the source calls inconclusive (neither active nor inactive); the mix of calls is not that of the screen. The call rests on the fitted dose curve; in most records, active means well fitted inhibition curve with a large enough effect; inconclusive means small, poorly fitted or top-dose-only effect; inactive means no such curve, though single readings can be large or run the other way. Where the call is inconclusive, the potency comes from a doubtful curve fit. Potency means the concentration at half of the fitted maximal effect; tags describe the fitted curve by direction and shape.",
  "data": [
    {"assay": "qHTS Primary assay for Inhibitors of Plasmodium falciparum Dd2 growth in vitro; further: nearly all actives have a fitted effect of over 65% in size;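 on activity, negative = inhibition: plate controls were DMSO vehicle for no effect and reference drug for full effect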", "conditions": "P. falciparum Dd2 growth, SYBR Green, 72 h; activity, negative = inhibition: at 28.9 µM (top of the series) unless noted; series mostly up to 28.9 µM", "summary_of_the_method": "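Readout: SYBR Green fluorescence, 485 nm excitation, 535 nm emission, after ~16 h lysis at 37C. Before that, Dd2-infected red cells (2.5% hematocrit) grew 72 h with compound, 29 uM top final concentration.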", "values": [
      {"smiles": "CC(C)(C)OC(=O)N1CCC(c2c(C(=O)NCc3cccc(Cl)c3)cnn2-c2ccc(F)cc2)CC1", "Potency": "active: 11.2 µM"},
      {"smiles": "O=C(NCc1nnc2ccc(-c3ccccc3)nn12)c1ccc(Cl)cc1", "Potency": "inactive"},
      {"smiles": "CCn1ccc2sc(C)c(C(=O)NCc3ccc(OC)cc3OC)c2c1=O", "Potency": "inactive"},
      {"smiles": "COc1cc(NC(=O)Cn2c(N3CCOCC3)nc(C)cc2=O)cc(OC)c1OC", "Potency": "inactive"},
      {"smiles": "CCCNC(=O)N1CCCCCC1CN1CCOCC1", "note": "(stereo not drawn)", "Potency": "inconclusive: 11.2 µM [inhibitor, single point]"},
      {"smiles": "O=C1[C@@H]2C[C@@H](CN2Cc2ccccc2)Oc2ccccc2N1Cc1ccccc1", "Potency": "inconclusive: 4.47 µM [inhibitor, partial curve]"},
      {"smiles": "Cc1ccc(NC(=O)Cn2c(=O)n(Cc3nc(-c4ccccc4)no3)c(=O)c3cc4c(cc32)OCO4)cc1F", "Potency": "inconclusive: 17.8 µM [inhibitor, single point]"},
      {"smiles": "CCc1ccccc1NC(=O)CN(C)C(=O)C1CCN(c2cnn(Cc3ccccc3)c(=O)c2)C1", "note": "(stereo not drawn)", "Potency": "inconclusive: 7.94 µM [inhibitor, partial curve, poor fit]"},
      {"smiles": "COc1ccc(C(=O)Nc2ccc([C@H]3OCC(=O)N(Cc4ccc(F)cc4)[C@@H]3CO)cc2)cc1", "Potency": "inconclusive: 17.8 µM [inhibitor, single point]"},
      {"smiles": "Cc1ccc(C(=O)Nc2ccc3c(c2)n(C)c(=O)c(=O)n3C)cc1", "Potency": "inconclusive: 12.6 µM [inhibitor, single point]"},
      {"smiles": "CC1CCN(Cc2c(O)ccc3c(=O)c(Oc4ccccc4Cl)c(C(F)(F)F)oc23)CC1", "Potency": "active: 0.631 µM"},
      {"smiles": "CCCc1noc(-c2cn(C3CCN(C(=O)c4ccco4)CC3)nn2)n1", "Potency": "inactive"},
      {"smiles": "O=C(c1cc(-c2ccccc2)n[nH]1)N1CCCC(Cc2noc(-c3cnccn3)n2)C1", "note": "(stereo not drawn)", "Potency": "inconclusive: 0.0708 µM [inhibitor, full curve, poor fit]"},
      {"smiles": "COc1ccc(-c2noc(C(=O)O)c2[C@@H](C)NC(=O)c2cc(C)n(C)n2)cc1", "Potency": "active: 3.16 µM"},
      {"smiles": "CN(CC1CCOCC1)C(=O)c1ccccc1Cl", "Potency": "inactive"},
      {"smiles": "Cc1nc(N2CCN(C(=O)c3ccoc3)CC2)cc(C(F)(F)F)n1", "Potency": "inconclusive: 8.91 µM [inhibitor, partial curve, poor fit]"},
      {"smiles": "O=C(Cn1c(=O)n(Cc2nc(-c3ccccc3)no2)c(=O)c2ccccc21)Nc1cccc(C(F)(F)F)c1", "Potency": "inconclusive: 17.8 µM [inhibitor, single point]"},
      {"smiles": "O=C(c1ccc2c(c1)N(Cc1ccccc1F)C(=O)c1ccccc1S2(=O)=O)N1CCC(Cc2ccccc2)CC1", "Potency": "inconclusive: 12.6 µM [inhibitor, partial curve, poor fit]"},
      {"smiles": "c1coc(-c2ccnc3nc(C4CCC4)nn23)c1", "Potency": "inactive"},
      {"smiles": "CCOC(=O)c1ccc(N2C(=O)c3[nH]nc(-c4ccccc4)c3C2c2ccc(CC)cc2)cc1", "note": "(stereo not drawn)", "Potency": "active: 10 µM"},
      {"smiles": "Cc1cccc2sc(N(Cc3cccnc3)C(=O)CCc3ccccc3)nc12", "Potency": "active: 3.98 µM"},
      {"smiles": "O=C(NCc1cccs1)c1ccc2c(=O)n3nc(Nc4ccccc4)sc3nc2c1", "Potency": "inconclusive: 17.8 µM [inhibitor, single point]"},
      {"smiles": "O=C(Nc1ccc(Cl)cc1)c1nc2c(o1)CCN(Cc1ccc3c(c1)CCO3)CC2", "Potency": "inconclusive: 1.41 µM [inhibitor, partial curve, poor fit]"},
      {"smiles": "COc1ccc(-c2noc(-c3nc(C)no3)n2)cc1OC", "Potency": "inactive"},
      {"smiles": "COc1ccc(CNC2(Cc3cc(CC(C)C)on3)COC2)cc1", "Potency": "inactive"},
      {"smiles": "O=c1c2sc3ccccc3c2n(Cc2cccc(F)c2)c(=O)n1Cc1ccccc1", "Potency": "inconclusive: 17.8 µM [inhibitor, single point]"},
      {"smiles": "CCOC(=O)Cn1c(=O)n(CC2CCCO2)c2nc(-c3ccccc3OC)nc(C(N)=O)c21", "note": "(stereo not drawn)", "activity, negative = inhibition": "inconclusive: -59% [inhibitor] [at 5.79 µM]"},
      {"smiles": "CCN(CC)c1ccc(NC(=O)C2CCN(c3nnc(-n4cccc4)s3)CC2)c(C)c1", "Potency": "inconclusive: 12.6 µM [inhibitor, partial curve, poor fit]"},
      {"smiles": "COc1ccc(Cn2c(CCC(=O)Nc3cc(OC)c(OC)c(OC)c3)nc3cccnc32)cc1", "Potency": "inconclusive: 8.91 µM [inhibitor, partial curve]"},
      {"smiles": "CCOC(=O)c1cc(-c2ccc(OC)cc2)n(CCC(=O)Nc2ccccc2OC)c1C", "Potency": "inconclusive: 11.2 µM [inhibitor, single point]"},
      {"smiles": "Cc1ccc(CN2CC[C@H]3C(=O)NCCCCCN(Cc4cccnc4)[C@@H]3C2)o1", "Potency": "inactive"},
      {"smiles": "S=C(Nc1ccccc1)N[C@H]1CO[C@H]2[C@@H]1OC[C@H]2OCc1ccccc1", "Potency": "inconclusive: 31.6 µM [inhibitor, single point]"},
      {"smiles": "Cc1cc(C)cc(C(=O)Nc2cccc(-c3nnc4n3CCCC4)c2)c1", "Potency": "active: 3.16 µM"},
      {"smiles": "CCn1cc2c3c(cccc31)CN(C(=O)Cc1ccc(F)cc1)CC2", "Potency": "inconclusive: 17.8 µM [inhibitor, single point]"},
      {"smiles": "CC1=C(c2ccc(Cl)cc2)S(=O)(=O)NC1=NCCCN1CCN(c2cc(C)ccc2C)CC1", "Potency": "inconclusive: 8.91 µM [inhibitor, single point]"},
      {"smiles": "O=C(CCCn1c(=O)c2cccn2c2ccccc21)Nc1cc(C(F)(F)F)ccc1Cl", "Potency": "inconclusive: 0.891 µM [inhibitor, full curve]"},
      {"smiles": "OC1(Cn2ccnc2)CCN(Cc2ccccc2Cn2cccn2)CC1", "Potency": "inconclusive: 7.94 µM [inhibitor, partial curve, poor fit]"},
      {"smiles": "CCc1nc2c(c(-c3ccc(O)cc3)n1)CCN(Cc1cccc(OC)c1)CC2", "Potency": "inconclusive: 3.55 µM [inhibitor, single point]"},
      {"smiles": "Cc1ccc(-n2cccc2CC(=O)N2CCCC(C)C2)cc1", "note": "(stereo not drawn)", "Potency": "inactive"},
      {"smiles": "CN(C)C(=O)c1cccnc1OC1CCN(C(=O)NCCc2ccccc2)C1", "note": "(stereo not drawn)", "Potency": "inactive"},
      {"smiles": "COCCNC(=O)[C@H]1C[C@H](Oc2cccnc2)CN1S(=O)(=O)c1ccccc1C", "Potency": "inactive"},
      {"smiles": "Cc1ccccc1Nc1c(-c2cc(Br)ccc2F)nc2ccccn12", "Potency": "inconclusive: 0.398 µM [inhibitor, full curve, poor fit]"},
      {"smiles": "Cn1nc(-c2nncn2Cc2ccccc2)c2c1CCN(C(=O)c1[nH]nc3c1COc1ccccc1-3)C2", "Potency": "inconclusive: 1.78 µM [inhibitor, full curve]"}
    ]}
  ]
}
